About 5,000 (1.2%) of roughly 410,000 compounds were called active. The inconclusive results got no clear call from the source; some entries with a clear call stand among them for comparison. Calls come from the whole dose curve; as a rule, active = well fitted inhibition curve with a large enough effect; inconclusive = small, poorly fitted or top-dose-only effect; inactive = no such curve, though single readings can be large or run the other way. A potency beside an inconclusive call is a rough fit, not a confirmed value.
Test: qHTS for Inhibitors of TGF-b; note: nearly all actives have a fitted effect of over 65% in size
Conditions: HepG2 CAGA-GFP TGF-b/SMAD3 reporter, GFP fluorescence, 18 h, TGF-beta stimulated, 500 pg/mL final; series mostly up to 46.1 µM
Outline: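 Inhibition of TGF-beta-driven CAGA-GFP reporter expression in HEPG2 cells is measured by cellular GFP fluorescence after 18 h stimulation with 500 pg/mL recombinant TGF-beta in 1% FBS medium at 37 degrees C.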
Potency is the fitted concentration of half-maximal effect; tags give direction and shape of the fitted curve.

SMILES | Potency
Cc1ccn2c(NC(=O)C(C)(C)Oc3ccc(Cl)cc3)c(-c3cccs3)nc2c1 | inconclusive: 35.5 µM [inhibitor, single point]
NC(N)=Nc1nc(-c2ccccc2)c2cc(F)ccc2n1 | inconclusive: 35.5 µM [inhibitor, single point]
CCOc1ccc(C(=O)N2CCN(c3ccccn3)CC2)cc1OCC | inactive
CC(C)CC(=O)NC(=S)Nc1ccc(N2CCN(C(=O)c3cccs3)CC2)cc1 | inconclusive: 28.2 µM [inhibitor, single point]
O=C(COc1ccc(-n2ccnc2)cc1)Nc1cccc(F)c1 | inactive
CCSc1nc(N)nc2c1ncn2C1OC(CO)C(O)C1O (centres undefined) | inactive
CCN(CCCNC(=O)CSc1cc(=O)n(C)c2cc(Cl)ccc12)c1ccccc1 | inconclusive: 20 µM [inhibitor, single point]
Cc1c(C)c2cccnc2c2ncccc12 | active: 10 µM
COc1ccc(CN(C(=O)c2oc3cc(C)ccc3c2C)C2CCS(=O)(=O)C2)cc1OC (centres undefined) | inconclusive: 6.31 µM [inhibitor, single point]
COc1ccc(CN(C)c2ccc(-c3nc(C)no3)cc2[N+](=O)[O-])cc1 | inconclusive: 12.6 µM [inhibitor, single point]
Cc1ccc(NC(=O)CSc2ncc3c(n2)-c2ccccc2N(C)S3(=O)=O)c(Cl)c1 | inconclusive: 1.26 µM [inhibitor, full curve]
CC1CCCCC1NC(=O)C1CCN(S(=O)(=O)c2cccc3nonc23)CC1 (centres undefined) | inactive
CCOC(=O)c1cc(S(=O)(=O)NCc2ccc(F)cc2)[nH]n1 | inconclusive: 7.08 µM [inhibitor, partial curve]
CCc1ccc(OCC(=O)Nc2ccc(-c3nc4ccccc4o3)c(O)c2)cc1 | inconclusive: 6.31 µM [inhibitor, single point]
COc1ccccc1N(C(=O)c1snc(C(N)=O)c1N)C(C(=O)NCc1ccccc1)c1ccc(O)cc1 (centres undefined) | inactive
O=C(NCCN1C(=O)S/C(=C\c2ccc(Cl)c([N+](=O)[O-])c2)C1=O)C1=COCCO1 | active: 17.8 µM
CCN(CC)C(=O)c1sc2c(c1C)c(=O)n(-c1ccc(OC)cc1OC)c(=O)n2Cc1cc(C)ccc1C | inconclusive: 35.5 µM [inhibitor, partial curve, poor fit]
O=C1CC2(CCN(C(=O)c3cccc(Br)c3)CC2)Oc2ccccc21 | inconclusive: 15.8 µM [inhibitor, single point]
CC(=O)N1c2ccc(S(=O)(=O)NCc3ccc(Cl)cc3)cc2CC1C (centres undefined) | inconclusive: 35.5 µM [inhibitor, single point]
CCOC(=O)c1c(C)n(C)c2ccc(OCC(O)CNCCc3ccccc3)cc12 (centres undefined) | inconclusive: 35.5 µM [inhibitor, single point]
Cc1cc(O)c(C(C)C)cc1N=Cc1ccccc1[N+](=O)[O-] | inactive
CC1CC(C)CN(S(=O)(=O)c2ccc3c(c2)CCN3C(=O)C2CC2)C1 (centres undefined) | inactive

SMILES | Potency
O=C(NCCCNC(=O)c1cccs1)c1cccs1 | inactive
O=C(CN1CCN(Cc2ccccc2)CC1)Nc1ccccc1-c1ccccc1 | inconclusive: 25.1 µM [inhibitor, single point]
COc1ccc(C(=O)Nc2cc3cc(Cl)ccc3oc2=O)cc1OC | inactive
COCCCNC(=O)CSc1nc(-c2ccc(OC)cc2)[nH]c1-c1ccc(OC)cc1 | inconclusive: 31.6 µM [inhibitor, single point]
CCOC(=O)C1=C(c2cccc(Oc3ccccc3)c2)NC(=S)NC1C (centres undefined) | inconclusive: 35.5 µM [inhibitor, single point]
CC/C(=N\NC(=S)NC(C)C)c1ccc(OC)c(OC)c1 | inconclusive: 17.8 µM [inhibitor, single point]
O=C(NCc1ccccc1Cl)c1ccc2nc(Cc3ccccc3)oc2c1 | inconclusive: 35.5 µM [inhibitor, single point]
COC(=O)N/N=C/c1ccc(Oc2ccccc2)cc1 | inconclusive: 1.26 µM [inhibitor, partial curve, poor fit]
CCC(=O)N1c2ccccc2CC1C(=O)NCCN1CCN(c2cccc(Cl)c2)CC1 (centres undefined) | inactive
CC(=O)c1cc2c(cc1NC(=O)C1CN(C(C)=O)c3ccccc3O1)OCO2 (centres undefined) | inconclusive: 2.82 µM [inhibitor, full curve, poor fit]
Cc1nc(SCC(=O)N2CCCc3ccccc32)c2oc3ccccc3c2n1 | inactive
O=C1c2ccccc2CCC12N=NCC2c1ccc(Cl)cc1 (centres undefined) | inconclusive: 35.5 µM [inhibitor, single point]
O=C(Nc1ccc(Cl)c(S(=O)(=O)Nc2ccccc2Cl)c1)c1cccs1 | inconclusive: 35.5 µM [inhibitor, single point]
CCOC(=O)[C@@H]1[C@H]2COc3ccc(Br)cc3[C@@H]2N2C(=O)N(c3ccc(C)cc3)C(=O)[C@@]12C | inconclusive: 6.31 µM [inhibitor, single point]
CCC1(C)COC2(OC1)C(=O)Nc1ccccc12 (centres undefined) | inactive
CCN1CCN(c2cc(C)c3cc(NC(=O)c4cc(Br)ccc4Cl)ccc3n2)CC1 | inconclusive: 17.8 µM [inhibitor, single point]
O=C(O)COc1ccc(/C=N/n2c(COc3ccccc3)nc3ccccc3c2=O)cc1 | inconclusive: 5.62 µM [inhibitor, single point]
Cc1cccc(-c2noc(CCC(=O)Nc3ccccc3)n2)c1 | inactive
CN(C)c1ccc(CNC(=O)Cn2c(=O)oc3cc(S(=O)(=O)NCc4ccccc4)ccc32)cc1 | inactive
O=C1c2[nH]nc(-c3ccccc3O)c2C(c2cccc(Br)c2)N1Cc1ccncc1 (centres undefined) | inconclusive: 10 µM [inhibitor, partial curve, poor fit]
CCCCCC(=O)N1C[C@H](n2cc(C3CC3)nn2)[C@@H](O)C[C@@H]1c1ccc(C)cc1 | inactive
CSCCC(NC(=O)c1ccco1)C(=O)N1CC=C(c2ccccc2)CC1 (centres undefined) | inconclusive: 14.1 µM [inhibitor, single point]

— PubChem BioAssay AID588855 (National Center for Advancing Translational Sciences (NCATS), 2011)
